Results reported in PMC9911399, “Two distinct binding modes provide the RNA-binding protein RbFox with extraordinary sequence specificity”.
Where a chain is given by its changes, count along the chain named. This is one part of the list.

T1: RBFOX1 RRM (Homo sapiens, UniProt Q9NWB1 109-208)
T1 sequence: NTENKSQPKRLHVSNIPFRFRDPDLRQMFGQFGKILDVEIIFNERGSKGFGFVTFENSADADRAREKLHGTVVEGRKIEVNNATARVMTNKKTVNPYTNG

B1: GACACGC (DNA:RNA)
RNA: GGGAGACCGGAAUUCAGAUUGUCCGACACGCUUAAAUCCCGUCGUAGCCACCA
DNA 1: CAATCTGAATTCCGGTCTCCC
DNA 2: TGGTGGCTACGACGGGATT
B2: UGGAUCA (DNA:RNA)
RNA: B1 RNA with G25U, A26G, C27G, C29U, G30C, C31A
DNA 1: CAATCTGAATTCCGGTCTCCC
DNA 2: TGGTGGCTACGACGGGATT
B3: GUGGCAG (DNA:RNA)
RNA: B1 RNA with A26U, C27G, A28G, G30A, C31G
DNA 1: CAATCTGAATTCCGGTCTCCC
DNA 2: TGGTGGCTACGACGGGATT
B4: AGCGGAG (DNA:RNA)
RNA: B1 RNA with G25A, A26G, A28G, C29G, G30A, C31G
DNA 1: CAATCTGAATTCCGGTCTCCC
DNA 2: TGGTGGCTACGACGGGATT
B5: AGUAGGU (DNA:RNA)
RNA: B1 RNA with G25A, A26G, C27U, C29G, C31U
DNA 1: CAATCTGAATTCCGGTCTCCC
DNA 2: TGGTGGCTACGACGGGATT
B6: GGUUUUU (DNA:RNA)
RNA: B1 RNA with A26G, C27U, A28U, C29U, G30U, C31U
DNA 1: CAATCTGAATTCCGGTCTCCC
DNA 2: TGGTGGCTACGACGGGATT
B7: ACAACCC (DNA:RNA)
RNA: B1 RNA with G25A, A26C, C27A, G30C
DNA 1: CAATCTGAATTCCGGTCTCCC
DNA 2: TGGTGGCTACGACGGGATT
B8: CAGUGAU (DNA:RNA)
RNA: B1 RNA with G25C, C27G, A28U, C29G, G30A, C31U
DNA 1: CAATCTGAATTCCGGTCTCCC
DNA 2: TGGTGGCTACGACGGGATT
B9: GGAAAGG (DNA:RNA)
RNA: B1 RNA with A26G, C27A, C29A, C31G
DNA 1: CAATCTGAATTCCGGTCTCCC
DNA 2: TGGTGGCTACGACGGGATT
B10: UCCAUAA (DNA:RNA)
RNA: B1 RNA with G25U, A26C, C29U, G30A, C31A
DNA 1: CAATCTGAATTCCGGTCTCCC
DNA 2: TGGTGGCTACGACGGGATT
B11: AGGCUUC (DNA:RNA)
RNA: B1 RNA with G25A, A26G, C27G, A28C, C29U, G30U
DNA 1: CAATCTGAATTCCGGTCTCCC
DNA 2: TGGTGGCTACGACGGGATT
B12: AUAGGCU (DNA:RNA)
RNA: GGGAGACCGGAAUUCAGAUUGUCCAUAGGCUUUAAAUCCCGUCGUAGCCACCA
DNA 1: CAATCTGAATTCCGGTCTCCC
DNA 2: TGGTGGCTACGACGGGATT
B13: GCAGGAG (DNA:RNA)
RNA: B12 RNA with A25G, U26C, C30A, U31G
DNA 1: CAATCTGAATTCCGGTCTCCC
DNA 2: TGGTGGCTACGACGGGATT
B14: AAGAUUC (DNA:RNA)
RNA: B1 RNA with G25A, C27G, C29U, G30U
DNA 1: CAATCTGAATTCCGGTCTCCC
DNA 2: TGGTGGCTACGACGGGATT
B15: UGGGUUC (DNA:RNA)
RNA: B12 RNA with A25U, U26G, A27G, G29U, C30U, U31C
DNA 1: CAATCTGAATTCCGGTCTCCC
DNA 2: TGGTGGCTACGACGGGATT
B16: AUCGACU (DNA:RNA)
RNA: B12 RNA with A27C, G29A
DNA 1: CAATCTGAATTCCGGTCTCCC
DNA 2: TGGTGGCTACGACGGGATT
B17: AAGGUAG (DNA:RNA)
RNA: B12 RNA with U26A, A27G, G29U, C30A, U31G
DNA 1: CAATCTGAATTCCGGTCTCCC
DNA 2: TGGTGGCTACGACGGGATT
B18: AUGUGGU (DNA:RNA)
RNA: B12 RNA with A27G, G28U, C30G
DNA 1: CAATCTGAATTCCGGTCTCCC
DNA 2: TGGTGGCTACGACGGGATT
B19: UCAUCUA (DNA:RNA)
RNA: B12 RNA with A25U, U26C, G28U, G29C, C30U, U31A
DNA 1: CAATCTGAATTCCGGTCTCCC
DNA 2: TGGTGGCTACGACGGGATT
B20: AUUCAGU (DNA:RNA)
RNA: B12 RNA with A27U, G28C, G29A, C30G
DNA 1: CAATCTGAATTCCGGTCTCCC
DNA 2: TGGTGGCTACGACGGGATT
B21: ACUGAAC (DNA:RNA)
RNA: B12 RNA with U26C, A27U, G29A, C30A, U31C
DNA 1: CAATCTGAATTCCGGTCTCCC
DNA 2: TGGTGGCTACGACGGGATT
B22: UUAGUAC (DNA:RNA)
RNA: B12 RNA with A25U, G29U, C30A, U31C
DNA 1: CAATCTGAATTCCGGTCTCCC
DNA 2: TGGTGGCTACGACGGGATT
B23: GUAUGAU (DNA:RNA)
RNA: B12 RNA with A25G, G28U, C30A
DNA 1: CAATCTGAATTCCGGTCTCCC
DNA 2: TGGTGGCTACGACGGGATT
B24: CUAGAUU (DNA:RNA)
RNA: B12 RNA with A25C, G29A, C30U
DNA 1: CAATCTGAATTCCGGTCTCCC
DNA 2: TGGTGGCTACGACGGGATT
B25: CCCCUCG (DNA:RNA)
RNA: B12 RNA with A25C, U26C, A27C, G28C, G29U, U31G
DNA 1: CAATCTGAATTCCGGTCTCCC
DNA 2: TGGTGGCTACGACGGGATT
B26: CGUAGAU (DNA:RNA)
RNA: B12 RNA with A25C, U26G, A27U, G28A, C30A
DNA 1: CAATCTGAATTCCGGTCTCCC
DNA 2: TGGTGGCTACGACGGGATT
B27: GUCGAGC (DNA:RNA)
RNA: B1 RNA with A26U, A28G, C29A
DNA 1: CAATCTGAATTCCGGTCTCCC
DNA 2: TGGTGGCTACGACGGGATT
B28: GCGUGCA (DNA:RNA)
RNA: B12 RNA with A25G, U26C, A27G, G28U, U31A
DNA 1: CAATCTGAATTCCGGTCTCCC
DNA 2: TGGTGGCTACGACGGGATT
B29: GAUGGGG (DNA:RNA)
RNA: B1 RNA with C27U, A28G, C29G, C31G
DNA 1: CAATCTGAATTCCGGTCTCCC
DNA 2: TGGTGGCTACGACGGGATT
B30: UAUAGGG (DNA:RNA)
RNA: B1 RNA with G25U, C27U, C29G, C31G
DNA 1: CAATCTGAATTCCGGTCTCCC
DNA 2: TGGTGGCTACGACGGGATT
B31: AGCAAUG (DNA:RNA)
RNA: B1 RNA with G25A, A26G, C29A, G30U, C31G
DNA 1: CAATCTGAATTCCGGTCTCCC
DNA 2: TGGTGGCTACGACGGGATT

These binders were tested against T1, RBFOX1 RRM (assay: EMSA; HiTS-Eq, 1 nM pool, 10 min; buffer printed only for the single-RNA assays: 10 mM Tris pH 7.5, 150 mM NaCl, 3.4 mM EDTA, 0.001% NP-40, 30 C). Details: tags: His6 N-terminal (pET28a); label: 5' 32P.
Outline: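 These values rest on relative association constants, computed from read-count changes of each RNA species versus the control reaction and normalised to the cognate motif. Reads came from free RNA recovered by 8% native PAGE after purified RbFox RRM (wild type or mutant) at increasing concentrations was equilibrated for 10 min in 50 µL with 1 nM of a 5′-radiolabelled pool with 7 randomized nucleotides and DNA-annealed flanks.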

Compared with B1, B2 is higher in binding signal: 0.00981 KA relative to UGCAUGU for the first, 0.0231 KA relative to UGCAUGU for the second.

First: B3
Second: B4
The binding signal of the first is higher: 0.0182 KA relative to UGCAUGU for the first, 0.00961 KA relative to UGCAUGU for the second.

First: B5
Second: B6
The binding signal of the first is lower: 0.00705 KA relative to UGCAUGU for the first, 0.00799 KA relative to UGCAUGU for the second.

First: B7
Second: B8
The binding signal of the first is lower: 0.00239 KA relative to UGCAUGU for the first, 0.00947 KA relative to UGCAUGU for the second.

First: B9
Second: B10
The binding signal of the first is higher: 0.0155 KA relative to UGCAUGU for the first, 0.000205 KA relative to UGCAUGU for the second.

Compared with B11, B12 is lower in binding signal: 0.0172 KA relative to UGCAUGU for the first, 0.00605 KA relative to UGCAUGU for the second.

First: B13
Second: B14
The binding signal of the first is higher: 0.00845 KA relative to UGCAUGU for the first, 0.00483 KA relative to UGCAUGU for the second.

First: B15
Second: B16
The binding signal of the first is higher: 0.0352 KA relative to UGCAUGU for the first, 0.00559 KA relative to UGCAUGU for the second.

First: B17
Second: B18
The binding signal of the first is lower: 0.0097 KA relative to UGCAUGU for the first, 0.0169 KA relative to UGCAUGU for the second.

First: B19
Second: B20
The binding signal of the first is lower: 0.00411 KA relative to UGCAUGU for the first, 0.00563 KA relative to UGCAUGU for the second.

First: B21
Second: B22
The binding signal of the first is higher: 0.0093 KA relative to UGCAUGU for the first, 0.00923 KA relative to UGCAUGU for the second.

First: B23
Second: B24
The binding signal of the first is higher: 0.0134 KA relative to UGCAUGU for the first, 0.0063 KA relative to UGCAUGU for the second.

First: B25
Second: B26
The binding signal of the first is higher: 0.0119 KA relative to UGCAUGU for the first, 0.00673 KA relative to UGCAUGU for the second.

Compared with B27, B28 is higher in binding signal: 0.015 KA relative to UGCAUGU for the first, 0.0222 KA relative to UGCAUGU for the second.

First: B29
Second: B30
The binding signal of the first is higher: 0.0176 KA relative to UGCAUGU for the first, 0.00266 KA relative to UGCAUGU for the second.

B31 was tested, and the binding signal was 0.0115 KA relative to UGCAUGU.
